# The supplement of paper PMC12632987
# The full ranking holds about 4,500 sequences; the median of “median log2 fold change of GCK-ALFA target abundance (FLAG IP / Myc IP barcode read proportion)” is about 0.078, and the lowest 2% start at about -0.6. The list shows a part of the results.
# B1: GBRAP_39_5680 (protein)
# chain: EEEEENEDTVSYLEGVAAKYLYETGKSEEEALKEAKKVLKEYAEKHPELKELLEELIELAEKKGEEAKLALIGVAVLIKEGTPLEEIKEKIEKIIAYFKS
# B2: GBRAP_186_5376 (protein)
# chain: DEELEEKMDEIIDKLEAEGYRVIVVDTITELTEEEKEAIRRDVEAAGALAKETGQKIALVIPFKGSKEEVEEAKKFIAELNKEAEAASGLKVVLAAKVVE
# B3: GBRAP_11_2826 (protein)
# chain: EKEKLKELAEKAEEIAKELKRLIASGNPSEEELKELLKKAKELLELTKKYGDESETKLAEILLEEIEEAIADPENQQEHLQHALAFAEVLEGQYLLRYDE
# B4: GBRAP_160_4099 (protein)
# chain: SEEIEELIEEIEELKEETKEMIKGETNEERATIVEGFGGDVLMLLFSSGLVSEEVEEYADELFDELVATIRANPDLTEEEIIALIEEVVEEVKEKIKEEH
# B5: GBRAP_52_6364 (protein)
# chain: MLEEAVKKLREAVEAQLAGKEEEMDKILREIVENFSEETIVAAVERVAEEVLEKSLEEAEAFLETAIRLADIMREAGRDEAAADEIEAIAARAYMAVLEK
# B6: GBRAP_128_3402 (protein)
# chain: SEAEAVARAAALVAAIVEADVATARALARELMALFGTLSLAAQERVAAVVRAALPKLTAEKLDVLADVAREQRPAFTPEAQDIINDWEVDALNAAEEKEE
# B7: GBRAP_11_2733 (protein)
# chain: KKEKLKEIAEAAERLAELLARLIEEGPEDEELRAEAREALERLAELVEKYGDEDEKKLVEIIREEFERAEEDPENAVAHLERALAAARVLEGQVLLEIEE
# B8: GBRAP_128_3442 (protein)
# chain: SQEELLKKAFELLDKIVKSDVETAKKLTKELAEVLKQLDEEGRDKVVEYFEKKAKKLSEEKLEAVADALREQIPQADPLTANYLAEMIVILGERILELEE
# B9: GBRAP_11_2673 (protein)
# chain: MKEKLLEAAELAEKAAKLVEELIKEGVDNEELLKELKKLLEELKKLAKEYLSKALQKDVEVAEELFKELLEDEENRLEYAEQLLAALRVLEGNLLLEADE
# B10: GBRAP_57_6469 (protein)
# chain: MERLEKVEEHTERALALIDARAPAEEVLAEFRKALEELSEETLRDVALIVDPEFDYEASREEAIAHLLALLREALEAGDYARARRIVETVDGQAEMEYVE
# B11: GBRAP_35_5546 (protein)
# chain: DSDRETVEMLLNTMEDIVLALPDVSPEEQLTLAEHLIDLAELAIEEKPKDKELLKRLIEALEEAIKLVEASDLPEEKREELIKRLEEAKEEAEKLLKEVE
# B12: GBRAP_95_7032 (protein)
# chain: EDDKLAVESDIEVAIAAAELGDEDAAARALRRALEGLKKAGKVKLDEELLKETIKVILEVGVKKLPKEEVLELLELLKESAETEEVKELAEKAIEEVKKR
# B13: GBRAP_52_6194 (protein)
# chain: MRAELRAKAEEIVALVKAGREAEARAMMRELARTLSEEELRLLGEEFAELAAEAAPEDFDAVFRAAEMFADVLLEEGHDEVLADDLLARVAAALYKRELA
# B14: GBRAP_57_6456 (protein)
# chain: MSRLEKIEEAAKAAHKALEEGKPVEEVLKEVRKMLELMDKETLLDVALILDPNTDMDLSKEELIEYIVEIVRRAAEEEGPEAVRAAVDLIEGQAEMSAVE
# B15: GBRAP_128_3162 (protein)
# chain: AVEEAKKYTKELMEKIKNSSLEEVKKITEEIMEKMKESTDEEQEAMADVILEELPKLSKEKLEIIADVFEKLRPELSPFGQEQVNDVLVAALNEAEELEE
# B16: GBRAP_195_5414 (protein)
# chain: MKVVGVAVTASADDTPEQIEAKMLEAVRAAIAAHGGDVVVALRVHPSHSLAEAEAVAERVRAATADVRVTVEIFRDESLTEEQLQRFAEMEALNEELERE
# B17: GBRAP_83_6959 (protein)
# chain: MITVVATSDPASIRSAVDAAIDLHKEEGEEVDLEILLTAASAATAVAEVGRLIDAGVEADITLVADEADAAAARAAAAAIRARAAAAGRNVRVELVILPA
# B18: GBRAP_125_3030 (protein)
# chain: HMEELAEDLGLIARALGFSEGDVALLRENALAHGIKGAMIALALAEGDEELAELLEKLTEEEVAEVVRRVAEELRRNPELTPEEVKELILEKAKEAVEKS
# B19: GBRAP_160_4757 (protein)
# chain: KEELKKLKKEIEEIFEEHLKILKEVPASEAPTVVRGAMGEVLMTVMSSDAASDELEEKIGEILDEAEAEVEANKDKPVEYHIEVLKEAKEKILKLIEEEI
# B20: GBRAP_74_6514 (protein)
# chain: MAALLAALEAAAAAGDAAAVAALAREIIATGSLADIERAARIVVAFVEKNIDTLTEEEKELLADVLAELADELMDRGGDSEVITAVATAAYTLEKEIEAA
# B21: GBRAP_55_6430 (protein)
# chain: SEDDEDTELAAETLLELAAANVDDPAALQAYVDRLMEVAKDKPVTATLSPVPLEEAERLYEKLTAALTAAAAKHGLDVKVELERDEETGTASIVVTITPK
# B22: GBRAP_160_4119 (protein)
# chain: NEKLLKTAEDNAKDFEETIKEIEDLSPEEAGTLAIVTLGEAILDASEHDGAFEELEEKAEALEDALRATAATDPARLKEASLAALKEARDAFEKKAKELK
# B23: GBRAP_39_5681 (protein)
# chain: EEKEELELEVSYLEAIAAKYLYETGLSFEEALKEAKEILEKYAKENPELKELIEELIKLAEEKGEEAQLVLIGIAEKIKKGTPKEEIKKDIENAIKYFKS
# B24: GBRAP_160_4228 (protein)
# chain: METVEKIVEIFRETFLEALELIEGESEEERRVILDVAVGEIILEVEEIEEATDEMVEIVDERAEKLAERLLAARDASREERRALVEEEAKKLREELEKLA
# B25: GBRAP_128_3593 (protein)
# chain: SSEEVKKYVKEKVEAMKKADKETRKKIADELFEKILTLSDEEQEVAFETLEELLPELSAEDLEILADALRKHRPKFTPEGANLAADLEVEALNEAEELEE
# B26: GBRAP_125_3092 (protein)
# chain: AAAALAADLAALARALGFSDEDAAELAALAAASSVRQALYALFAAEGYEEAADLVAQLTEEEAAAVLAALAAWLAAHPDASREEVVAQVRALAREALAAR
# B27: GBRAP_184_5315 (protein)
# chain: EVIRRFITVETKEEAEKKLKEIKEEIKKSGKKYTVYIEVKNPTKELIDTVFEEIKKMKEEGVDADFILVVEEPVDEEMEDYIVEKAKEAGARAVIALPEE
# B28: GBRAP_42_5725 (protein)
# chain: KHKITLELYVETLEELREAVKIVEELNEKYLKEHGIIIELIVTAPEEAKEEAEKVNAKFAEKAKQATSESDWVVVAASAKEVEKAIEAAVDLALEEIKEK
# B29: GBRAP_117_2593 (protein)
# chain: SSKEEEALKRLKAAVERVAAVVAEQATLSPEEAAAALEAAKAELKELVKEVIEELGVEKALELAEEATLDADAETYFLVMSTVEEAVQEYKEEKEKEKLE
# Biological target: GABARAP, O95166
# Experiment: median log2 fold change of GCK-ALFA target abundance (FLAG IP / Myc IP barcode read proportion) (log2 ratio); each designed protein is fused to an ALFA-tag nanobody in HEK293 cells to bring the named protein to FLAG-tagged glucokinase (GCK); Myc marks an untargeted standard; higher = target protein stabilised (more abundant)
# Settings: target protein: 3xFLAG-MCP-GCK-ALFA reporter; HEK293 landing pad (RPLP)
# How it was run: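 HEK293 landing-pad cells received a recombined binder library fused to the ALFA nanobody and were induced with 2 μg mL^−1 doxycycline, then transfected with a plasmid encoding a FLAG-tagged target and a Myc-tagged standard. Lysates were collected after 48 h for anti-FLAG and anti-Myc immunoprecipitation, and the circular RNA barcodes were reverse transcribed, amplified and sequenced. Target abundance for each binder is the median log2 ratio of FLAG to Myc barcode read proportions. Barcodes had to reach a proportion of at least 10^−7 in both replicates, each binder needed at least 3 barcodes per replicate, a pseudocount of 10^−6 was applied, and the two replicates were pooled.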
# GABARAP, O95166, sequence (O95166 whole entry, the tested form may be a part): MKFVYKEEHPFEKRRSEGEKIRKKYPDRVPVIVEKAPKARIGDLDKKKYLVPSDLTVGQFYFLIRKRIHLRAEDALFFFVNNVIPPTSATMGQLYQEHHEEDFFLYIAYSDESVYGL
row,Binder,median log2 fold change
1,B1,0.142
2,B2,0.0418
3,B3,0.257
4,B4,-0.261
5,B5,0.165
6,B6,0.116
7,B7,0.0318
8,B8,0.0225
9,B9,0.0764
10,B10,0.297
11,B11,-0.0329
12,B12,0.196
13,B13,0.217
14,B14,-0.325
15,B15,0.232
16,B16,0.283
17,B17,0.0503
18,B18,0.0666
19,B19,0.0549
20,B20,0.116
21,B21,0.215
22,B22,0.263
23,B23,-0.00985
24,B24,-0.393
25,B25,-0.0275
26,B26,0.011
27,B27,0.243
28,B28,-0.454
29,B29,0.369
